Reference: PubChem BioAssay AID686978 (National Center for Advancing Translational Sciences (NCATS), 2013)
The campaign covered roughly 420,000 compounds. About 64,000 (15%) were called active. The inconclusive results got no clear call from the source; some entries with a clear call stand among them for comparison. Calls come from the whole dose curve; as a rule, active = well fitted inhibition curve with a large enough effect; inconclusive = small, poorly fitted or top-dose-only effect; inactive = flat fitted curve, though single readings scatter. No potency is given beside an inconclusive call; the fits are too rough.

Test: qHTS for Inhibitors of human tyrosyl-DNA phosphodiesterase 1 (TDP1): qHTS in cells in absence of CPT; note: nearly all actives have a fitted effect of over 55% in size
Conditions: DT40 Tdp1-/- hTDP1 cells, no CPT, ATP luminescence, 48 h; activity change, negative = growth inhibition: at 46.2 µM (top of the series) unless noted
Summary of the method: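 Growth of hTDP1-complemented DT40 Tdp1-knockout cells is measured by ATP luminescence after at least 48 hr compound exposure at 37 °C, with DMSO substituting for the 20 nM CPT used in the parallel screen.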
% is set by controls: 0 for no effect and ±100 for the full control effect; potency is the fitted concentration of half-maximal effect; tags give direction and shape of the fitted curve.

Compound	Potency	activity change, negative = growth inhibition
O=S(=O)(c1ccccc1)c1ncc(C(F)(F)F)cc1O	inactive	–
O=C(CC1(O)C(=O)Nc2cc(Cl)cc(Cl)c21)c1ccccc1O (stereo not drawn)	inconclusive [inhibitor, single point]	–
Cc1ccc2nc(N3CCN(Cc4nnnn4C4CCCC4)CC3)c(C#N)cc2c1	active: 23.1 µM	–
CCCSc1nnc(CSc2nc3ccccc3s2)n1-c1ccccc1	inconclusive [inhibitor, partial curve, poor fit]	–
COc1ccc(NS(=O)(=O)c2ccc(NC(=S)NCC3CCCO3)cc2)cc1 (stereo not drawn)	inconclusive [inhibitor, partial curve]	–
COC(=O)c1ccc2c(=O)n(CCCCCC(=O)N3CCN(c4ccccc4)CC3)c(=O)[nH]c2c1	active: 10.3 µM	–
CC(C)CC(=O)C1=C(O)C(=O)N(Cc2ccccc2)C1c1ccccc1 (stereo not drawn)	inconclusive [inhibitor, single point]	–
C/C(=N\NC(=O)c1cc2ccccc2cc1O)c1ccc(C)o1	active: 14.6 µM	–
Cc1ccc(S(=O)(=O)Nc2cc3c4c(c2)C(C)C(=O)N4CCC3)cc1 (stereo not drawn)	inconclusive [inhibitor, single point]	–
O=C(O)c1cccc(-n2sc3ccccc3c2=O)c1	inconclusive [inhibitor, single point]	–
O=c1c(-c2ccco2)[n+]([O-])c2ccccc2n1OCc1ccccc1F	inconclusive [inhibitor, partial curve]	–
CCCc1cc(=O)oc2c3c(ccc12)OCN(Cc1ccc(OC)cc1)C3	inconclusive [inhibitor, single point]	–
C=CCc1ccc(OCCN2CCc3ccccc3C2)c(OC)c1	active: 16.4 µM	–
CCCCC1Cc2[nH][nH]c(=O)c2C(c2ccc(F)cc2)O1 (stereo not drawn)	inconclusive [inhibitor, single point]	–
CCn1c(C(=O)NCc2ccccc2C)cc2oc3ccccc3c21	inconclusive [inhibitor, single point]	–
COC(=O)c1ccccc1NC(=O)c1ncoc1-c1ccco1	inconclusive [inhibitor, partial curve]	–
O=C(c1ccc(S(=O)(=O)NCc2ccco2)cc1)N1CCN(Cc2ccccc2)CC1	inconclusive [inhibitor, single point]	–
COc1ccccc1OCCC(=O)OCC(=O)Nc1cc(S(=O)(=O)N(C)C)ccc1Cl	inconclusive [inhibitor, single point]	–
Cc1nc(-c2cccc(NC(=O)Nc3ccc([N+](=O)[O-])cc3)c2)no1	active: 4.61 µM	–
Fc1cc2[nH]c(=S)[nH]c2cc1Cl	inactive	–
N=C1CCCC1C(=S)SCCC(N)=O (stereo not drawn)	inactive	–
Cc1ccccc1OCCSc1nc2ccc(NC(=O)c3ccccc3)cc2s1	inconclusive [inhibitor, partial curve, poor fit]	–
COC(=O)CSc1nc(-c2ccc(C)cc2)c2c(c1C#N)CCCC2	inactive	–
COc1ccc(CN(CCCN2CCOCC2)C(=O)Nc2cccc(Cl)c2)cc1OC	–	inconclusive: -33.7% [inhibitor]
CCCC(=O)Nc1nc2ccc(OC)cc2s1	inconclusive [inhibitor, single point]	–

Compound	Potency	activity change, negative = growth inhibition
O=C(NCc1cccs1)C1CCN(S(=O)(=O)c2cccc3cccnc23)CC1	inactive	–
COc1ccc(CCNC(=O)c2cc(-c3cc(C)ccc3O)n[nH]2)cc1OC	inconclusive [inhibitor, partial curve]	–
CN1N=C(C(C)(C)C)CSC1=Nc1ccc(F)cc1	–	inconclusive: -32.7% [inhibitor]
Cc1cc(C)n(-c2nc3c(c(=O)[nH]c(=O)n3C)n2CC(O)c2ccccc2)n1 (stereo not drawn)	–	inconclusive: -31.4% [inhibitor]
CCCN1C(=O)c2[nH]nc(-c3ccccc3O)c2C1c1ccc(OCc2ccccc2)c(OC)c1 (stereo not drawn)	active: 16.4 µM	–
COc1cc2nc(COc3ccc(C#N)cc3)n(CC#N)c(=O)c2cc1OC	inactive	–
COc1ccc(CCNc2ncnc3nc[nH]c23)cc1	active: 6.31 µM	–
CCNc1ncc2ncc(=O)n(Cc3cccc(OC)c3)c2n1	inconclusive [inhibitor, single point]	–
COc1cccc(CN(C)C(=O)CCNC(=O)c2ccco2)c1	inactive	–
CCOc1ccc(Oc2c(/C=N/NC(=O)COc3ccccc3OC)c(C)nn2-c2ccccc2)cc1	inconclusive [inhibitor, single point]	–
COc1cc(C(=O)N2CCN(c3ccc(Nc4ccc(C)cc4)nn3)CC2)cc(OC)c1OC	inconclusive [inhibitor, partial curve]	–
Cc1cccc(N2CCN(S(=O)(=O)c3c(C)noc3/C=C/N(C)C)CC2)c1C	inconclusive [inhibitor, single point]	–
O=C(Nc1cccc(NC(=O)c2cccs2)c1)c1ccc2c(c1)OCO2	active: 11.6 µM	–
CS(=O)(=O)c1ccc2nc(NC(=O)CCC(=O)c3cccs3)sc2c1	–	inconclusive: -31.1% [inhibitor]
Cc1cccc(S(=O)(=O)Nc2nc3ccccc3nc2OC(C)C)c1	inactive	–
CC1(C)Cc2ccccc2C(N/N=C/c2ccc(Cl)cc2)=N1	inconclusive [inhibitor, partial curve]	–
Cc1ccc(S(=O)(=O)N(C)C)cc1NC(=S)N(C)C1CCN(C)CC1	inactive	–
CC(COc1ccccc1)OC(=O)Nc1ccccc1 (stereo not drawn)	inactive	–
COc1cccc2c1cc1c(=O)n(CC(=O)NC3CCCCC3)nc(C)n12	inactive	–
Cc1ccc(S(=O)(=O)N2CCCCC2)cc1NC(=O)CNC(C)c1ccc(Cl)c(Cl)c1 (stereo not drawn)	active: 13 µM	–
Cc1cccc(N2CC(C(=O)Nc3ccc(S(=O)(=O)Nc4nccs4)cc3)CC2=O)c1C (stereo not drawn)	inactive	–
Cc1ccccc1-c1nc(NCCN(C)C)nc2ccsc12	inconclusive [inhibitor, single point]	–
COc1c(-c2coc3cc4c(cc3c2=O)CC(O)C(C)(C)O4)ccc2c1C=CC(C)(C)O2 (stereo not drawn)	active: 0.0206 µM	–
COc1ccc(NC(=S)NCCc2c[nH]c3ccccc23)c(OC)c1	inconclusive [inhibitor, single point]	–
CC(C)COC(=O)N1CCCCC1c1cc(C(=O)NCc2cccnc2)no1 (stereo not drawn)	inactive	–

Compound	Potency	activity change, negative = growth inhibition
CC(=O)c1cccc(NC(=O)CNC(=O)Cc2ccccc2)c1	inconclusive [inhibitor, single point]	–
CCOC(=O)CSC1=C(C#N)C(c2ccc(Cl)cc2)CC(=O)N1 (stereo not drawn)	inconclusive [inhibitor, single point]	–
C=CCn1c(SCc2ccc(C(=O)NCCO)cc2)nc2sc(C)c(C)c2c1=O	inactive	–
O=[N+]([O-])c1cc(F)c(N2CCCCC2)cc1N1CCOCC1	inactive	–
COC(=O)[C@@]1(Cc2ccc(F)cc2)[C@H]2c3cc(C(=O)N4CCCC4)n(CCF)c3C[C@H]2CN1C(=O)c1ccccc1	active: 23.1 µM	–
Cc1ccc(Nc2nnc(SCC(=O)c3ccc(Br)s3)s2)c(C)c1	inconclusive [inhibitor, single point]	–
NC(=O)c1cccc(-c2ccnc3c2CC(C(=O)NCc2ccc(F)c(F)c2)O3)c1 (stereo not drawn)	active: 8.2 µM	–
c1ccc(COc2ccc(-c3cc4nc(NCCN5CCOCC5)ccn4n3)cc2)cc1	active: 20.6 µM	–
COc1ccc(CNCCCn2cnc3c(OCc4ccccc4)ncnc32)cc1	inconclusive [inhibitor, single point]	–
Cc1ccc(-n2nnnc2SCC(=O)c2cc(C)n(-c3cc(C)on3)c2C)cc1	active: 14.6 µM	–
C=CCn1c(SCC(=O)Nc2ccc(NC(=O)c3ccco3)c(OC)c2)nnc1-c1ccncc1	inactive	–
CN(C(=O)COC(=O)c1n[nH]c2ccccc12)C1CCS(=O)(=O)C1 (stereo not drawn)	inactive	–
COc1ccc(/C=C/C(=O)Nc2ccccc2Cl)cc1S(=O)(=O)N1CCOCC1	inconclusive [inhibitor, single point]	–
CCC(CO)Nc1nc2ccc(Cl)cc2c2ccccc12 (stereo not drawn)	inconclusive [inhibitor, partial curve]	–
CC(C)n1cc(C(=O)N2CCCC(N3CCN(c4cccc(Cl)c4)CC3)C2)cn1 (stereo not drawn)	inactive	–
CC(Oc1ccccc1)C(=O)Nc1ccc(C(N)=O)cc1 (stereo not drawn)	inactive	–
O=C(C1CCCN(c2ncnc3c2nc2n3CCCCC2)C1)N1CCN(c2ccccc2F)CC1 (stereo not drawn)	active: 9.2 µM	–
COc1cccc(NC(=O)CN(C)C(=O)c2cccc(S(=O)(=O)N3CC4(C)CC3CC(C)(C)C4)c2)c1 (stereo not drawn)	inconclusive [inhibitor, partial curve, poor fit]	–
COc1ccc(N2C(=O)[C@@H]3C[C@H]2CN3Cc2ccc3nccnc3c2)cc1Cl	inconclusive [inhibitor, single point]	–
CCC[C@@H](CN1CCC[C@H]1CN1C(N)=NC[C@@H]1Cc1ccccc1)N1C[C@@H](Cc2ccccc2)N(CCc2ccc(Cl)c(Cl)c2)C1=N	inconclusive [inhibitor, single point]	–
Cc1cccc(OC(=O)n2c(=S)oc3cc(Cl)ccc32)c1	inconclusive [inhibitor, partial curve, poor fit]	–
Cc1cc(C)c([N+](=O)[O-])cc1NCC(=O)N1CCN(c2ccccc2)CC1	inconclusive [inhibitor, single point]	–
COc1ccccc1C(=O)NCC(=O)NC1CCCc2ccccc21 (stereo not drawn)	inconclusive [inhibitor, single point]	–
